We go through 93 compounds from PubChem BioAssay AID1508624 (National Center for Advancing Translational Sciences (NCATS), 2021).

The structures appear in SMILES notation. Among all 48,000 compounds or so, about 120 (0.25%) were called active. Not shown: some 4% with an inconclusive outcome. Calls follow the shape of the dose curve; as a rule, active = well fitted activation curve with a large enough effect; inconclusive = small, poorly fitted or top-dose-only effect, or another doubt; inactive = no such curve, though single readings can be large or run the other way. The list shows a part of the results.

The assay is described as follows: Primary qHTS for Identification of Small Molecule Activators of Huntingtin-Antisense Promoter Activity. Also: nearly all actives have a fitted effect of over 55% in size. To be noted: HEK293 HTT-AS promoter firefly luciferase reporter, 24 h; series mostly up to 57.5 µM; activity change, positive = activation: at the top concentration. The gist of the method: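 HEK293 Fluc reporter, 2,500 cells/well, 24 h pre-culture; cpds up to 57.5 uM final, 24 h 37 degrees C; Dual-Glo, 10 min RT; normalized vehicle = 0%, zero RLU = -100%.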
(qHTS replaces the single test concentration by a dilution series.)
As to `CCOc1ccc(/C=C/c2nc(C#N)c(N3CCC(C)CC3)o2)cc1`, the “activity change, positive = activation” value is inactive: -24.3%.
For the compound `COC(=O)c1cc2oc3ccccc3c2n1Cc1ccccc1Cl`, the “activity change, positive = activation” value is inactive: -8.82%.
In the case of `COc1ccc(CNC(=O)C(=O)Nc2cccc(C)c2C)cc1`, the “activity change, positive = activation” value is inactive: -8.73%.
Consider `Cc1ccc(-n2ncc3c(N4CCN(c5ccc(F)cc5)CC4)ncnc32)cc1`, for which the “activity change, positive = activation” value was inactive: -11.5%.
Next, `COc1ccc2oc(-c3ccc(NC(=O)c4ccc(Cl)cc4Cl)cc3)nc2c1`: inactive: -17.8%; `O=c1c(-c2cc(-c3ccccc3)nc3c2COc2ccccc2-3)coc2ccc(Cl)cc12`: inactive: -15.5%.
Turning to `CN1CCN(C2=Nc3ccccc3Sc3ccc(Cl)cc32)CC1`, the “activity change, positive = activation” value was inactive: -5.91%.
Next, `O=C(Nc1cc(Cl)ccc1Cl)c1cc(S(=O)(=O)N2CCc3ccccc3C2)ccc1F`: inactive: -13.7%; `CCc1ccc(NC(=O)C2CCCN(c3nnc(C)c4c(C)n(-c5ccccc5)nc34)C2)cc1` (stereo not drawn): inactive: 2.26%.
In the case of `CCN1CCN(c2cc(C)c3cc(NC(=O)/C=C/c4ccc(C)cc4)ccc3n2)CC1` it was inactive: 4.97%.
Take `Cc1cccc(C(=O)Nc2ccc(N3CCC(N4CCCCC4)CC3)c(C(=O)O)c2)c1`: the “activity change, positive = activation” value is inactive: -7.71%.
Next, `COc1cc(CNc2ccc3[nH]c(=O)[nH]c3c2)cc(Br)c1OCc1ccccc1F`: inactive: -25.8%; `Cc1cccc(CN2CCN(CC(=O)Nc3c(C)cccc3C)S2(=O)=O)c1`: inactive: -12%; `Cc1ccc(C)n1-c1nnc(N2CCCC(C(=O)NCc3cccc(Br)c3)C2)s1` (stereo not drawn): inactive: -16.7%.
Next, `COCCNC(=O)CSc1nc(-c2ccccc2)[nH]c1-c1ccc(C)cc1`: inactive: -18.8%; `CC1=C(C(=O)NCc2ccc(Cl)cc2)C2(CCC(C)CC2)OC1=O` (stereo not drawn): inactive: -39.2%.
As to `NC1=NC(c2cc(F)cc(F)c2)n2c(nc3ccccc32)N1` (stereo not drawn), the “activity change, positive = activation” value is inactive: -9.25%.
In the case of `Cc1ccc(CNC(=O)CCc2c(C)nc3c4c(C)cc(C)nc4nn3c2C)cc1` it was inactive: 4.88%; in that of `CCOc1cc(C=C2C(=O)N(c3ccccc3)N=C2C)cc(Cl)c1OCC(=O)OC`, inactive: -27.3%.
Next, `Cc1c(Cl)cccc1-n1nc(C)c2c(C)cc(=O)n(CC(=O)N3CCCc4ccccc43)c21`: inactive: -4.74%; `CCCNC(=O)C1CCN(c2nc3ccc(C)cc3[nH]2)CC1`: inactive: 22.1%.
In the case of `CCCOc1ccc(CNC(=O)C2CCN(C(=O)c3sccc3-n3cccc3)CC2)cc1` it was inactive: -31.9%.
In the case of `Cc1cc2oc3c(c(=O)c2cc1C)C(c1ccc(C(C)C)cc1)N(c1nc(C)c(C)s1)C3=O` (stereo not drawn), the “activity change, positive = activation” value was inactive: -8.18%.
In the case of `Cc1ccc(CNC(=O)CCCN2C(=O)CCn3nc(-c4cccn4C)cc32)cc1` it was inactive: -27.3%; in that of `COc1ccc(-c2nc3ccccc3n3c(-c4ccc(OC)cc4)c4c(=O)n(C)c(=O)n(C)c4c23)cc1`, inactive: 10.6% [at 11.5 µM, percent change from vehicle, -100% = no light]; in that of `CCOC(=O)c1ccc2c(c1)N(Cc1ccc(F)cc1Cl)C(=O)c1ccccc1S2`, inactive: -19.9%.
Take `Cc1cnc(=O)[nH]c1SCC(=O)Nc1cc(C(F)(F)F)ccc1Cl`: the “activity change, positive = activation” value is inactive: -5.03%.
Next, `CCOC(=O)Cn1c(=O)n(C2CCCCC2)c2nc(-c3ccc(OC)cc3)nc(C(N)=O)c21`: inactive: -0.84%.
Next, `Nc1ccc(C(=O)Nc2ccccc2N)cc1`: inactive: 29.1%.
As for `COc1ccc(Cc2nc3ccc(C(=O)NCCc4ccc(OC)c(OC)c4)cc3o2)cc1`, the “activity change, positive = activation” value was inactive: -28.3%.
Next, `COc1cc(NC(=O)c2ccc(-c3ccc(Cl)cc3)o2)cc(OC)c1`: inactive: -5.82%; `Cn1c(=O)n(C)c2cc(CNCc3ccccc3)ccc21`: inactive: -2.01%; `Cc1cc(C)c(S(=O)(=O)Nc2cc(Cl)c3oc4c(c3c2)C(=O)CCC4)cc1C`: inactive: -7.27%.
Take `Cc1ccc(CNS(=O)(=O)c2cc(Br)cc3c2N(C(=O)C2CC2)CC3)cc1`: the “activity change, positive = activation” value is inactive: -13.3%.
Next, `CCOc1ccc(C(=O)Nc2ccc(-c3nnc4n3CCCCC4)cc2)cc1OCC`: inactive: -10.1%.
In the case of `Cc1cccc2c(=O)cc(CSCC(=O)Nc3ccc(Cl)cc3)[nH]c12` it was inactive: -28.1%; in that of `Cc1ccc(Cn2c(=O)n(Cc3ccccc3)c(=O)c3c(C)c(C)sc32)cc1`, inactive: 3.01%.
In the case of `Cc1ccc(CNC(=O)C(=O)NCC(c2ccco2)S(=O)(=O)c2ccc(C)cc2)cc1` (stereo not drawn), the “activity change, positive = activation” value is inactive: -2.57%.
In the case of `CCCCOc1cccc(C(=O)N(Cc2ccc(Br)o2)C2CCS(=O)(=O)C2)c1` (stereo not drawn) it was inactive: -30.3%; in that of `Cc1cccc(C(=O)Nc2ccc(C(=O)OCc3cc(=O)n4c(C)csc4n3)cc2)c1`, inactive: -34.7%.
Next, `NC(=O)CSc1oc(-c2cccs2)nc1S(=O)(=O)c1ccc(Br)cc1`: inactive: -9.92%; `Cc1cc(F)ccc1NC(=O)C1CCN(S(=O)(=O)c2ccc3c(c2)CCCC(=O)N3)CC1`: inactive: -20.6%; `O=C(Cn1c(=O)c(C(F)(F)F)nc2ccccc21)Nc1ccc(Br)cc1F`: inactive: -3.56%.
Next, `COc1ccc(S(=O)(=O)N2CCN(c3ccccc3)CC2)cc1-c1noc(C)n1`: inactive: -13.9%; `COC(=O)c1ccc(NC(=O)N2CCN(c3nnc(C)c4c(C)n(-c5ccccc5)nc34)CC2)cc1`: inactive: -4.77%; `O=C(c1cnc2c(c1)COc1ccccc1-2)c1ccccc1O`: inactive: 23.9%.
In the case of `Cn1nc(-c2ccccc2F)c2cc(C(=O)Nc3cc(F)ccc3F)sc21`, the “activity change, positive = activation” value was inactive: -11.1%.
Next, `Cc1ccccc1Cn1cc(CCC(=O)NCc2cccc(Br)c2)c2ccccc21`: inactive: -35.6%.
In the case of `COc1ccc(S(=O)(=O)NCC(c2ccco2)N2CCN(c3ccc(F)cc3)CC2)cc1` (stereo not drawn) it was inactive: -34.9%; in that of `CC(C)(C)NC(=O)CSc1nc(-c2ccc(F)cc2)cc(C(F)(F)F)n1`, inactive: -27.2%; in that of `CC(C)c1cnc2c(c1SCC(=O)c1ccccc1)c(=O)n(C)c(=O)n2C`, inactive: -23.6%.
Next, `O=C(NCc1ccccc1)c1ccc2c(c1)N(Cc1ccccc1)C(=O)c1ccccc1S2(=O)=O`: inactive: -20.2%; `Cc1c(-c2nnc(SCC(=O)Nc3ccc(Br)cc3)o2)nnn1-c1ccc(F)cc1`: inactive: 2.25%; `O=C(Cn1c(=O)n(Cc2ccc(C(=O)NCc3ccc4c(c3)OCO4)cc2)c(=O)c2ccccc21)Nc1ccc(F)cc1F`: inactive: -15.4%.
As to `COC(=O)c1ccn(-c2nc(-c3ccc(Cl)cc3)cc(C(F)(F)F)n2)n1`, the “activity change, positive = activation” value is inactive: -23.5%.
In the case of `c1ccc2c(Oc3nc(Nc4ccc(N5CCOCC5)cc4)c4ncn(C5CCCCC5)c4n3)cccc2c1`, the “activity change, positive = activation” value was inactive: -10.2%.
Next, `CCOc1ccc(CNCCSc2nnnn2C)cc1OC`: inactive: -6.83%; `O=C(CS(=O)(=O)c1cccc2nsnc12)N1CCN(c2ccccc2)CC1`: inactive: -10.2%.
In the case of `COC(=O)c1ccccc1NC(=O)c1cn2c3c(ccc(Cl)c3c1=O)OC(C)C2` (stereo not drawn) it was inactive: -14.8%.
In the case of `CCCCNC(=O)C1CCN(c2nc3ccc(C)cc3[nH]2)CC1` it was inactive: 8.35%.
For the compound `CC(C)c1ccc(CN(Cc2ccco2)c2cnc(S(C)(=O)=O)nc2C(=O)Nc2ccccc2)cc1`, the “activity change, positive = activation” value was inactive: -21.8%.
With `CC(C)(C)C(=O)Nc1nc2nc(-c3ccccc3)cc(=O)n2[nH]1`, the “activity change, positive = activation” value is inactive: 21.2%.
Take `CCCCNC(=O)CN1C(=O)c2c(c3ccccc3n2C)C1c1ccc(OC)cc1` (stereo not drawn): the “activity change, positive = activation” value is inactive: -19%.
In the case of `Cc1ccc2oc(-c3cccc(NC(=O)c4ccc(N5CCC(C)CC5)c([N+](=O)[O-])c4)c3)nc2c1` it was inactive: 3.64%.
In the case of `COc1ccc(Nc2nc(Nc3ccc(OC)cc3OC)nc(N3CCOCC3)n2)c(OC)c1` it was inactive: -31.1%; in that of `COc1ccc(C2CC(=O)c3cc(-c4nc(-c5cccc([N+](=O)[O-])c5)cs4)c(=O)n(-c4ccc(F)cc4)c3C2)cc1` (stereo not drawn), inactive: -8.18%; in that of `CCc1cccc(C)c1NC(=O)c1cc(S(=O)(=O)N2CCC3(CC2)OCCO3)ccc1F`, inactive: -22.5%.
`Cc1oc(-c2ccc(Cl)cc2)nc1CN1CCCC(C(=O)NCCc2ccccc2)C1` (stereo not drawn): the “activity change, positive = activation” value is inactive: -33.1%.
With `C=CCn1c(=O)n([C@@H]2O[C@H](CO)[C@@H](O)[C@H]2O)c2nc(N)[nH]c(=O)c21`, the “activity change, positive = activation” value was inactive: -2.47%.
Next, `CC(=O)c1ccc(NC(=O)CSc2c(C(C)C)cnc3c2c(=O)n(C)c(=O)n3C)cc1`: inactive: -15.8%.
In the case of `C[C@]12C=CC(=O)C=C1CC[C@@H]1[C@@H]2C(=O)C[C@@]2(C)[C@H]1CC[C@]2(O)C(=O)CO` it was “inactive”; in that of `COc1ccc(CNc2nc3c(-c4cccc(F)c4)nnn3c3ccccc23)cc1`, inactive: 21.2%; in that of `COc1ccc(N(C)C(=O)c2cc3c(s2)-c2c(C)cccc2OC3)c(OC)c1`, inactive: -24.7%.
Next, `COc1ccc(-c2c(C)nn3c(C(F)(F)F)cc(-c4ccccc4)nc23)cc1OC`: inactive: -3.01%; `Cc1ccc(NC(=O)c2c(C)oc3c2C2=NCCN2C=N3)cc1F`: inactive: -3.97%; `CN(CC(=O)NCc1ccc(F)cc1)S(=O)(=O)c1ccc2[nH]c3c(c2c1)CCCC3`: inactive: -41.7%.
Consider `Cc1cccn2c(=O)cc(CSc3nnc(NC(=O)COc4ccccc4)s3)nc12`, for which the “activity change, positive = activation” value is inactive: -6.73%.
In the case of `COC(=O)c1cc2sccc2n1CC(=O)Nc1ccc(OC)c(OC)c1` it was inactive: 2.21%.
In the case of `CCc1ccc(-n2c(=O)c3sc4ccccc4c3n(CC(=O)NCc3ccccc3)c2=O)cc1` it was inactive: -7.41%.
Next, `Cc1c(Cl)cccc1NC(c1ccc(F)cc1)c1nnc(-c2ccccc2)o1` (stereo not drawn): inactive: -16.5%; `O=C(Nc1cccnc1)c1cc(-c2ccc(Cl)cc2)on1`: inactive: -3.22%; `O=C(c1ccc2c(c1)N(Cc1cccc(F)c1)C(=O)c1ccccc1S2)N1CCC2(CC1)OCCO2`: inactive: -29.3%.
For the compound `CCOC(=O)c1cc(S(=O)(=O)N2CCN(c3cccc(C)c3C)CC2)[nH]n1`, the “activity change, positive = activation” value is inactive: -21.2%.
Next, `CNC(=O)c1c(NC(=O)c2nc(SCc3ccc(C)cc3)ncc2Cl)sc2c1CCCC2`: inactive: -6.75%.
Next, `Cc1ccc(NC(=O)Nc2cn(CC(C)C)c(=O)c3ccccc23)cc1N(C)C`: inactive: -24.2%; `COc1ccc(-c2cc(C(C)=O)c(C)n2CCC(=O)NCc2ccc(C)cc2)cc1`: inactive: -24.6%; `COc1cccc(CNC(=O)C2CCN(C(=O)c3cnn(-c4ccccc4)c3-n3cccc3)CC2)c1`: inactive: -41.1%.
In the case of `CCN(c1ccccc1C)S(=O)(=O)c1nnc(NC(=O)c2ccco2)s1` it was inactive: -29.3%; in that of `COc1ccccc1OCC(=O)N1CCC(c2nc3ccccc3o2)CC1`, inactive: -9.93%.
For `Cc1ccc(-n2ncc(C(=O)NC3CCCCC3)c2C2CCN(C(=O)OC(C)(C)C)CC2)cc1`, the “activity change, positive = activation” value is inactive: -5.05%.
In the case of `CCCS(=O)(=O)c1ncc(Cl)c(C(=O)Nc2c(C(=O)Nc3ccccc3)oc3ccccc23)n1` it was inactive: -12%.
In the case of `CC(C)N(Cc1ccccc1)C(=O)Cn1ncc2c3ccccc3n(Cc3ccccc3)c2c1=O` it was inactive: -27.4%.
Next, `COc1ccc(CCNC(=O)c2cn(C)c3ccc(S(=O)(=O)N4CCOCC4)cc3c2=O)cc1OC`: inactive: 17.9%.
